Laboratory results: patent US9604925B2, “Class II HMG-CoA reductase inhibitors and methods of use” (Purdue Research Foundation, priority 2012, dated 2017)
≈ marks a conversion by molar mass, not a printed value.

Tested on: vancomycin resistant S. aureus (VRSA) NARSA Strain ID VRS10
Experiment: MIC micro dilution against VRSA
Settings: Staphylococcus aureus, read-out: VRSA MIC (μM)

In order of rising MIC:
1. CCCCCCCCCCc1ccc(NS(=O)(=O)c2ccc(O)c(C(=O)O)c2)cc1 [Compound 2f, 5-[N-(4-decylphenyl)sulfamoyl]-2-hydroxybenzoic acid]  16 µM (≈ 6.94 µg/mL)
2. O=C(O)c1cc(S(=O)(=O)Nc2ccc(CCC3CCCCC3)cc2)ccc1O [Compound 2l, 5-[N-(4-(2-cyclohexylethyl)phenyl)sulfamoyl]-2-hydroxybenzoic acid]  32 µM (≈ 12.9 µg/mL)
3. CC(C)CCCCc1ccc(NS(=O)(=O)c2ccc(O)c(C(=O)O)c2)cc1 [Compound 2j, 2-hydroxy-5-[N-(4-(5-methylhexyl)phenyl)sulfamoyl]benzoic acid]  32 µM (≈ 12.5 µg/mL)
4. CCCCCCCc1ccc(NS(=O)(=O)c2ccc(O)c(C(=O)O)c2)cc1 [Compound 2e, 5-[N-(4-heptylphenyl)sulfamoyl]-2-hydroxybenzoic acid]  64 µM (≈ 25.1 µg/mL)
